From ChEMBL document CHEMBL4888484, “Replenishing the malaria drug discovery pipeline: Screening and hit evaluation of the MMV Hit Generation Library 1 (HGL1) against asexual blood stage Plasmodium falciparum ,using a nano luciferase reporter read-out” (2022) come the findings set out here.

Among all 150,000 compounds or so, about 540 (0.36%) showed an effect of 50% or more. The list shows a part of the results.

The test relates to Plasmodium falciparum. Nature of the test: Primary screen in NF54 nanoGlo assay, in single point, at 2uM, 72h; a lower Z score goes with more inhibition. To be noted: timepoint 72 hour. It counts as functional, Erythrocyte.
With `CCc1[nH]nc(-c2ccc(C(F)(F)F)cc2)c1NC(=O)C1CCCC1`, the “% Inhibition” value amounted to 8% and the Z score is recorded as -1.11.
Consider `Cn1cc([C@@H]2CN(S(=O)(=O)c3ccccc3Cl)Cc3ccccc32)cn1`, for which the “% Inhibition” value came to 3% and the Z score is -0.39.
Take `OC[C@H]1CN(Cc2ccc3ccccc3c2)C[C@H]1CN1CCCCC1`: the “% Inhibition” value was 4% and the Z score is given as -0.8.
For `CCOc1ccc(NC(=O)Cn2c3cc(Cl)ccc3c(=O)n2C(C)(C)C)cc1`, the “% Inhibition” value amounted to 6% and the Z score was -0.91.
The corresponding values for `O=c1[nH]c(=O)n(CCC2OCCO2)cc1Cl` are -1% and 0.17.
On the same counts, the results for `O=S(=O)(c1ccc(-n2cc(-c3cnn(Cc4ccccc4)c3)cn2)nc1)N1CCCCC1` are -14% and 2.
The corresponding values for `CC(C)N1CCN2[C@H](CN(Cc3ccccc3)C[C@@]2(C)CO)C1` are -17% and 2.13.
As for `CC(C)N(Cc1ccsc1)C[C@H]1CCC(=O)N1`, the “% Inhibition” value was -5% and the Z score is 0.62.
Turning to `O=C(Nc1ccccc1)c1nc[nH]c1/N=C(/NCc1ccccc1)Nc1ccccc1`, the “% Inhibition” value is 27% and the Z score is reported as -3.07.
Turning to `CC(C)(C)c1nccn1C1Cc2ccccc2C1`, the “% Inhibition” value was -16% and the Z score stood at 1.45.
The corresponding values for `CCCO[C@H]1CCCN(Cc2ccc(OC)nc2)C1` are 17% and -2.18.
On the same counts, the results for `COc1ccc([C@H]2OCC[C@@H]2NC(=O)NCc2nc3cc(C)ccc3n2C)cn1` are 11% and -2.03.
The corresponding values for `COc1ccc(S(=O)(=O)N2CC3(CC[C@H](CN4CCCC4)O3)C2)cc1` are -10% and 1.66.
In the case of `Cc1nn(-c2ccccc2)c2ncc(NC(=O)[C@]3(C)CCCO3)cc12`, the “% Inhibition” value was 7% and the Z score is on record as -1.3.
The corresponding values for `CCCn1ccnc1CN1CCc2nnc(Cc3cccnc3)n2CC1` are -21% and 2.66.
On the same counts, the results for `Cc1cc(C(=O)N[C@@H](C)Cc2ccsc2)nc(C)n1` are -8% and 1.38.
On the same counts, the results for `CC(C)[C@@H](CO)NS(=O)(=O)c1cccc(C(=O)NCc2ccncn2)c1` are -20% and 3.36.
On to `COc1ccc(Nc2cc(Nc3ccc(OC)cc3)n(C(=O)c3ccc(Cl)cc3)n2)cc1`, for which the “% Inhibition” value worked out at 8% and the Z score is listed as -1.24.
The corresponding values for `CC(NC(=O)c1cn(CC(O)c2ccccc2)nn1)c1ccccc1` (centres undefined) are -9% and 1.78.
The corresponding values for `CC1CC1NC(=O)N(C)C(C)c1cnn(C)c1` (centres undefined) are 11% and -1.97.
On the same counts, the results for `O=C(C[C@@H]1CCNC[C@@H]1Cc1cc(-c2ccccn2)on1)N1CCN(c2ccccc2)CC1` are 30% and -3.43.
For the compound `NC(=O)c1c(NC(=O)c2cnccn2)sc2c1CCCCC2`, the “% Inhibition” value was determined as 3% and the Z score was -0.51.
The corresponding values for `CC1CN(Cc2nccs2)CC(C)N1Cc1nccs1` (centres undefined) are -13% and 2.1.
The corresponding values for `CCOC(=O)C(=O)Nc1cnn(CC)c1C(=O)Nc1cnn(C)c1C` are 0% and 0.
The corresponding values for `O=C(O)C[C@H]1COCCN1C(=O)Cn1ccnc1` are -18% and 2.29.
As for `CC(C)Cc1ccc(S(=O)(=O)N(CCN2CCN(C)CC2)CC(=O)N2CCNCC2)cc1`, the “% Inhibition” value is reported as 21% and the Z score is listed as -2.49.
Consider `Cc1c2c(C(F)(F)F)cc(=O)n(CCC(=O)Nc3ccc4c(c3)OCCO4)c2nn1C`, for which the “% Inhibition” value is 38% and the Z score is recorded as -5.08.
For `CC(C)S(=O)(=O)N1CC[C@@]2(CCCN(CC3CC3)C2=O)C1`, the “% Inhibition” value came to 2% and the Z score is listed as -0.22.
`CC(C)c1nc(CNC2CCN(c3ccc4c(c3)OCO4)CC2)no1`: the “% Inhibition” value worked out at 3% and the Z score is reported as -0.51.
On the same counts, the results for `CC(C)c1cc(C(=O)N2CCO[C@H](C(=O)O)C2)c2ccccc2n1` are -4% and 0.56.
Turning to `CCc1ncnc(CC)c1C(=O)NC[C@@H]1CNC(=O)C1`, the “% Inhibition” value is reported as 6% and the Z score was -1.18.
With `Cc1nc(C(=O)NCc2cccc(N3CCCC3)c2)cs1`, the “% Inhibition” value is listed as -4% and the Z score turned out to be 0.76.
On the same counts, the results for `Cc1noc2ncnc(NCCc3noc(C4CCCC4)n3)c12` are -16% and 1.48.
On the same counts, the results for `CCN(CC)C[C@@H]1OCC(NS(=O)(=O)c2ccc(C)cc2)[C@H]1O` (some centres undefined) are -3% and 0.53.
On to `O=C(NCc1ccc(C2CC2)nc1)NC1CCCC1`, for which the “% Inhibition” value came out at 20% and the Z score is on record as -2.56.
As for `CCc1ccc(CNS(=O)(=O)c2cccc(C(=O)NC3CCC3)c2)nc1`, the “% Inhibition” value came to 2% and the Z score is recorded as -0.31.
`COC(=O)[C@@H]1C[C@@H](O)CN1Cc1c(C)noc1C`: the “% Inhibition” value is -6% and the Z score is listed as 0.95.
On the same counts, the results for `Cc1cscc1C(=O)NC1CN(Cc2ccccc2)CCC1CO` (centres undefined) are -14% and 2.15.
Regarding `O=C(COc1ccc(Cl)cc1)Nc1cccc(N2Cc3ccccc3C2)c1`, the “% Inhibition” value is -3% and the Z score is reported as 0.31.
For `CCn1nc(C)c(C(=O)N(C)CCN(C)Cc2nc(CC(C)C)no2)c1Cl`, the “% Inhibition” value is -4% and the Z score stood at 0.58.
On the same counts, the results for `O=C(CN(Cc1ccco1)C1CS(=O)(=O)CC1O)NCCOc1ccccc1` (centres undefined) are 0% and -0.04.
`O=C1c2ccccc2N[C@H](c2cccc(Cl)c2Cl)N1C1CCCCC1`: the “% Inhibition” value came to 34% and the Z score is reported as -3.89.
